In the supplement of paper PMC3334620:
The full ranking holds about 33,000 sequences; the median of “E-score (-0.5 to 0.5)” is about -0.013, and the highest 2% start at about 0.3. The list shows a part of the results.

Target: T1, Msn1 (UniProt P22148)
T1 sequence: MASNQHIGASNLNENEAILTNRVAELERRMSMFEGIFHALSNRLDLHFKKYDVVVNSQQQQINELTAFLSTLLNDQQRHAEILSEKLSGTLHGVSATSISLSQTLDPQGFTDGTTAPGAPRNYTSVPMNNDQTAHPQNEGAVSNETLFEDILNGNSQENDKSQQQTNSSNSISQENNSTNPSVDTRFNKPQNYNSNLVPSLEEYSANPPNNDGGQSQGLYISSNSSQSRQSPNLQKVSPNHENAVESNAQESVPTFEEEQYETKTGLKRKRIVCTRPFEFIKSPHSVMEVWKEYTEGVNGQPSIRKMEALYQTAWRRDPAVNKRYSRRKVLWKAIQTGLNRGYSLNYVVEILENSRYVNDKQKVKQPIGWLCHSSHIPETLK
Assay: PBM E-score (8-mer binding enrichment) (E-score (-0.5 to 0.5)); higher = stronger / more preferred TF binding; most listed sequences are background and not binding sites
Settings: protein concentration: 200 nM; construct: GST-full length
Method in brief: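 Full-length yeast transcription factors or their DNA-binding domains, GST-tagged and expressed with PURExpress, were applied at about 100-200 nM to universal all-10-mer Agilent arrays. These arrays had been made double-stranded by primer extension on fresh or once-stripped slides. Detection used fluorescent anti-GST, normalisation used masliner, and E-scores for ungapped eight-base words pooled with reverse complements came from the Universal PBM Analysis Suite.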

| Sequence | PBM E-score |
| --- | --- |
| CGACTCAG | -0.0304 |
| ACTTACTA | -0.0134 |
| ATACCCCA | 0.105 |
| CTTTCTAA | 0.174 |
| AATCTGGA | -0.0116 |
| AGCGGCTC | -0.0877 |
| CCGGATAC | 0.0563 |
| AATACATC | 0.0242 |
| GGCCATAA | 0.02 |
| GTCGTTGA | 0.0537 |
| CCATTAGG | -0.0674 |
| GGCGGCCC | -0.338 |
| AACATTCA | -0.0503 |
| CGAACGAG | 0.0596 |
| CGAGAGAG | -0.0305 |
| AATACGAC | -0.0936 |
| AGGTTCAT | -0.256 |
| CGTAACTC | -0.304 |
| CCGCGTGC | -0.206 |
| CATACCAC | 0.155 |
| CACATGGC | -0.028 |
| GATTAAAA | 0.25 |

| Sequence | PBM E-score |
| --- | --- |
| AGAAGACC | -0.156 |
| CTACACGC | -0.145 |
| CTGTACTA | 0.177 |
| ACAAATGG | 0.345 |
| AAGTTACA | -0.11 |
| AGTCGCGA | 0.21 |
| TAGTGTGA | -0.141 |
| AGCTATCC | -0.139 |
| CCCGAGGC | -0.25 |
| ATGCCAAG | 0.114 |
| ACGGGTTA | -0.274 |
| CCAACTCG | -0.116 |
| TCCATAGA | 0.241 |
| GTACACTA | 0.0663 |
| CCTGCCGA | -0.0209 |
| CTATGGCC | -0.165 |
| CCCGGGAC | 0.0863 |
| CTTGTGTC | 0.304 |
| TCACAAAA | 0.119 |
| CCCTGGAA | -0.222 |
| AGCACGGA | -0.0452 |
| CGTTGTCC | 0.413 |

| Sequence | PBM E-score |
| --- | --- |
| ACACACCC | 0.131 |
| ACGTATCC | -0.0999 |
| TGGATAAA | 0.182 |
| GCCTAACC | -0.109 |
| TATGTGAA | -0.121 |
| CAAAGTCC | 0.296 |
| TAGAGTAA | 0.00729 |
| GTTGGCAA | -0.0296 |
| AGATCAAG | 0.0944 |
| AAGGTTCG | 0.0141 |
| ACGTATCA | -0.0451 |
| CCGTGTCC | 0.413 |
| AACTAATA | 0.326 |
| CCAGGTAA | 0.0404 |
| GCACATAA | -0.0366 |
| CCCCTTCG | -0.192 |
| CAGCGCCG | -0.125 |
| CAGCAGAC | 0.0732 |
| CGGAGAAA | 0.0512 |
| AACCTGCC | -0.102 |
| CCAGGTAC | -0.0417 |
| CGAGTAGA | -0.165 |

| Sequence | PBM E-score |
| --- | --- |
| ACAAAATC | 0.352 |
| ACTTGATG | 0.0141 |
| CAAAGCCG | 0.0702 |
| GGGAATCA | -0.0168 |
| TAAAGGCA | -0.00043 |
| ACAAAAGT | 0.295 |
| AAGGGACG | 0.111 |
| GATGGGGA | -0.143 |
| GAAGTAGC | -0.206 |
| AACCACAT | 0.083 |
| GTGGCCAA | -0.0704 |
| GGCCTTTA | -0.0897 |
| CCTTAAGG | -0.0168 |
| CGCATACG | -0.0304 |
| ATCAGTCC | -0.197 |
| GGGTTGAA | 0.0117 |
| ACCTGCGT | -0.149 |
| CGCTAGGA | -0.0538 |
| GACAACCC | 0.0834 |
| GACTTTCA | 0.271 |
